Results as given in paper PMC4336329 (PLoS ONE, 2015).
Screen size: about 310,000 compounds; about 2,200 (0.71%) showed an effect of 50% or more. The effect is printed as a negative number. Some of the results follow.

target: human ether-à-go-go-related gene (hERG) potassium channel (human, UniProt Q12809); test: primary screen, population patch clamp on CHO cells stably expressing hERG
Sequence (Q12809 whole entry, looked up): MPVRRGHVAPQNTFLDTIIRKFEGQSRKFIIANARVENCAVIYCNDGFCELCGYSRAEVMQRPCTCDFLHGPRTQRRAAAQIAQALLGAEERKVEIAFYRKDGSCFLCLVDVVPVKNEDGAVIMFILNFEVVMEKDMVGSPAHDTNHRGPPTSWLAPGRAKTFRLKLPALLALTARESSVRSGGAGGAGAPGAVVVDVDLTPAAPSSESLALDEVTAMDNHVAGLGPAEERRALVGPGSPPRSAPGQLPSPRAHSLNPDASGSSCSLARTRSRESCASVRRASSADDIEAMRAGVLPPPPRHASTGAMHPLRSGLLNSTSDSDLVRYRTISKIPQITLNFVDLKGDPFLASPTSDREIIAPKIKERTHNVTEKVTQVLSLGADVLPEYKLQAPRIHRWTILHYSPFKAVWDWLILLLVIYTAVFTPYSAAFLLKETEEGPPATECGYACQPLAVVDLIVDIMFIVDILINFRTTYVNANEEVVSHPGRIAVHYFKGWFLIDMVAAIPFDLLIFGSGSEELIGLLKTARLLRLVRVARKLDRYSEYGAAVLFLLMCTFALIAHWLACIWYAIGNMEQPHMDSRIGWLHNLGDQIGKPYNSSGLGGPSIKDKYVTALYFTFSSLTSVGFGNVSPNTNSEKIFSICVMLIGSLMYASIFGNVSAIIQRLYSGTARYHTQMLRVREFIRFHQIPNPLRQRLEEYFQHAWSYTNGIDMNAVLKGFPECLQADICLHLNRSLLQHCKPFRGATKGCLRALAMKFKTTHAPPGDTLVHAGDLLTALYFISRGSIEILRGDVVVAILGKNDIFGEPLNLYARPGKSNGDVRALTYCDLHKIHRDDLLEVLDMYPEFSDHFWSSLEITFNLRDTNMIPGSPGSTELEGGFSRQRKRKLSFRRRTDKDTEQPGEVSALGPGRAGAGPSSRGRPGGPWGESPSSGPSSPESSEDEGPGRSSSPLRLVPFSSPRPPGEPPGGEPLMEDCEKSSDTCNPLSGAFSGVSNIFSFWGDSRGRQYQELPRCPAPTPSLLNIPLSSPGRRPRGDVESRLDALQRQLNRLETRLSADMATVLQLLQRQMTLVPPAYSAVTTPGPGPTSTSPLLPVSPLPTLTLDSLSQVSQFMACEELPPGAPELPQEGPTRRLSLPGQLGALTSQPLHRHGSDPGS

Compared with `CCCCS(=O)(=O)C1CCS(=O)(=O)C1` (stereo not drawn), `CCOC(=O)C1CCN(C(=O)CCCn2c(=O)c3cccn3c3cccnc32)CC1` is lower in “hERG current change (%, negative = inhibition) at 1uM” value: 10.1% for the first, -20.4% for the second.

First: N/C(=N\OC(=O)c1ccc(Cl)cc1)c1cccnc1
Second: COCCNC(=O)C(c1ccc(Cl)cc1)N(C(=O)Cn1nnc2ccccc21)c1cccnc1 (stereo not drawn)
The “hERG current change (%, negative = inhibition) at 1uM” value of the first is lower: -0.596% for the first, 7.46% for the second.

Compared with `CN(Cc1ccc(OC(F)F)cc1)Cc1nc2c(Br)cc(Br)cc2c(=O)[nH]1`, `COc1ccc(OCC(O)CNC(=O)Nc2cc(C)cc(C)c2)cc1` (stereo not drawn) is higher in “hERG current change (%, negative = inhibition) at 1uM” value: 4.74% for the first, 11.7% for the second.

First: COc1ccc(OC)c(NC(=O)CN2C(=O)NC3(CCOc4ccccc43)C2=O)c1 (stereo not drawn)
Second: COC(=O)CC1COc2ccccc2N1S(=O)(=O)c1ccc(OC)cc1 (stereo not drawn)
The “hERG current change (%, negative = inhibition) at 1uM” value of the first is lower: 12% for the first, 12.1% for the second.

Compared with `CN1C(=O)C(C)(C)c2cc(S(=O)(=O)NCC(=O)NCc3ccccc3)ccc21`, `O=C(NCc1ccccc1)c1nnc(CS(=O)(=O)c2ccccc2)o1` is lower in “hERG current change (%, negative = inhibition) at 1uM” value: 11.6% for the first, -2.45% for the second.

Going from `CO/N=C/C(c1ncc(C(F)(F)F)cc1Cl)S(=O)(=O)c1ccccc1` (stereo not drawn) to `COc1ccccc1NC(=O)CSc1nnc(CC(=O)Nc2cccc(C(F)(F)F)c2)n1C`, the “hERG current change (%, negative = inhibition) at 1uM” value falls from 10.9% to 7.82%.

Compared with `CC(C)C(NC(=O)c1ccc(F)cc1)C(=O)N1CCC1` (stereo not drawn), `CCOc1ccccc1NC(=O)C(NC(=O)C1CCC(C)CC1)C(C)C` (stereo not drawn) is lower in “hERG current change (%, negative = inhibition) at 1uM” value: 9.09% for the first, 2.93% for the second.

Compared with `CC1(C)Cc2c(sc(NC(=O)C(=O)N3CCOCC3)c2C(N)=O)CO1`, `Nc1nnc(SCC(=O)Nc2ccc(N3CCOCC3)cc2)s1` is lower in “hERG current change (%, negative = inhibition) at 1uM” value: 16.4% for the first, 0.81% for the second.

Going from `Cl.O=C(Cn1c(NCCCO)nc2ccccc21)c1ccc(Cl)cc1Cl` to `CCCNC(=O)CC1C(=O)N(Cc2ccccc2)C(C)c2nc3ccccc3n21` (stereo not drawn), the “hERG current change (%, negative = inhibition) at 1uM” value rises from -6.22% to 14.4%.

First: CN(CC(=O)N1CCc2ccccc2C1)S(=O)(=O)c1ccc2c(c1)c(=O)n(C)c(=O)n2C
Second: Cn1c(=O)c2c(ncn2CC(=O)OCc2ccccc2)n(C)c1=O
The “hERG current change (%, negative = inhibition) at 1uM” value of the first is higher: 2.05% for the first, 1.24% for the second.

First: CC(C)(C)N1C(=O)Cc2c1nc(N)c1c(N)nc(N3CCCCC3CO)c(C#N)c21 (stereo not drawn)
Second: Cc1ccc(-n2nc3c(c2NC(=O)CCC2CCCCC2)CS(=O)C3)cc1 (stereo not drawn)
The “hERG current change (%, negative = inhibition) at 1uM” value of the first is lower: 2.43% for the first, 3.94% for the second.

Compared with `CC(C)c1ccc2[nH]c(O)c(N=NC(=O)c3cccc(S(=O)(=O)Nc4cccc(Cl)c4)c3)c2c1`, `Cc1ccccc1NC1=C/C(=N\S(=O)(=O)c2ccc(C(=O)O)cc2)c2ccccc2C1=O` is higher in “hERG current change (%, negative = inhibition) at 1uM” value: 7.59% for the first, 13.3% for the second.

First: Cc1ccc(Nc2ccc(C(=O)NC3CCCCC3)cn2)cc1
Second: CC1CCCCN1C(=O)COc1ccc(NC(=O)c2ccco2)cc1 (stereo not drawn)
The “hERG current change (%, negative = inhibition) at 1uM” value of the first is lower: 1.04% for the first, 8.81% for the second.

Compared with `CCCCn1c(N)c(N(Cc2ccccc2OC)C(=O)c2c(CC)noc2C)c(=O)[nH]c1=O`, `COc1ccccc1CN1CCNC(=O)C1CC(=O)NCc1csc(C)n1` (stereo not drawn) is higher in “hERG current change (%, negative = inhibition) at 1uM” value: 10.8% for the first, 11.5% for the second.

Compared with `Cc1ccc(S(=O)(=O)NC(=O)NC(=O)N(C)S(=O)(=O)c2ccc(C)cc2)cc1`, `Cc1noc(NS(=O)(=O)c2ccc(N3C(=O)c4ccccc4C3=O)cc2)c1C` is higher in “hERG current change (%, negative = inhibition) at 1uM” value: 12% for the first, 14.9% for the second.

First: Cl.OC(COCC1COc2ccccc2O1)CN1CCN(c2ccccc2)CC1 (stereo not drawn)
Second: CN(C)C(=O)N(CCCN1CCOCC1)Cc1cccc2ccccc12
The “hERG current change (%, negative = inhibition) at 1uM” value of the first is lower: -24.7% for the first, 11.9% for the second.

First: c1ccc(Nc2nc3ccccc3s2)cc1
Second: N#C/C(=C(/O)CN1C(=O)c2ccccc2C1=O)c1nc2ccccc2[nH]1
The “hERG current change (%, negative = inhibition) at 1uM” value of the first is higher: 18.8% for the first, 10.8% for the second.

Going from `CCCCn1c(=O)n(C)c(=O)c2c(C(F)(F)F)cc(-c3ccncc3)nc21` to `CCCCC(=O)Nc1ccc2c(c1)nc(CCNC(=O)c1ccco1)n2C`, the “hERG current change (%, negative = inhibition) at 1uM” value rises from -4.76% to 6.33%.

First: O=C(NC1CCN(Cc2ccc(Cl)cc2)CC1)c1cn(-c2ccccc2)nc1-c1cccnc1
Second: CN(C)/N=C/c1cn(-c2ccccc2)nc1-c1cccnc1
The “hERG current change (%, negative = inhibition) at 1uM” value of the first is lower: -17.7% for the first, 4.34% for the second.

First: O=C(Cc1ccc(F)cc1)N1CCC(CC2CC(c3ccc(Cl)cc3)=NO2)(C(=O)NCC2CCCCC2)CC1 (stereo not drawn)
Second: COc1ccccc1NC(=O)Nc1nc(CC(=O)N2CCN(c3ccc(F)cc3)CC2)cs1
The “hERG current change (%, negative = inhibition) at 1uM” value of the first is lower: -9.21% for the first, 15% for the second.

Compared with `O=C(O)c1ccccc1SCc1nc2ccccn2c1Br`, `C=CCC(c1ccccc1)N(C(C)=O)c1ccco1` (stereo not drawn) is higher in “hERG current change (%, negative = inhibition) at 1uM” value: 12.3% for the first, 14.3% for the second.

Compared with `CCCCOC(=O)Nc1cccc(C(C)=O)c1`, `CC(=O)c1cccc(NC2=NCC(C)S2)c1` (stereo not drawn) is higher in “hERG current change (%, negative = inhibition) at 1uM” value: 0.259% for the first, 7.57% for the second.

Compared with `COCCNC(=S)NC1CC2CCCC(C1)N2Cc1ccco1` (stereo not drawn), `COC(=O)c1sccc1NC(=S)N1C(C)CCCC1C` (stereo not drawn) is higher in “hERG current change (%, negative = inhibition) at 1uM” value: -1.47% for the first, 8.81% for the second.

Going from `Cc1ccc(-n2ncc3c(=O)n(CC(=O)N4CCN(c5ccccc5F)CC4)cnc32)cc1C` to `O=C(CSc1nc2nc3c(cc2c(=O)n1-c1ccccc1)CCCC3)Nc1cccc2ccccc12`, the “hERG current change (%, negative = inhibition) at 1uM” value falls from 18.5% to 1.74%.

Going from `CC/C=C/C(=O)N1CC2(CC(c3cccc(NC(=O)c4ccccc4)c3)=NO2)C[C@@H]1C(N)=O` (stereo partly drawn) to `CCCCCC(=O)NNC(=O)c1ccc(-c2ccccc2)cc1`, the “hERG current change (%, negative = inhibition) at 1uM” value falls from 6.02% to -1.47%.

Going from `O=C(C[n+]1ccncc1)c1ccccc1.[Br-]` to `Cc1cc(C)c(C#N)c(OCC(=O)c2ccccc2)n1`, the “hERG current change (%, negative = inhibition) at 1uM” value falls from 17.2% to 10.7%.

First: Cn1nnnc1SCC(=O)NC1CCCCC1
Second: CCn1c(SCC(=O)Nc2ccc3c(c2)OCO3)nnc1C1CC1
The “hERG current change (%, negative = inhibition) at 1uM” value of the first is lower: 3.13% for the first, 17.4% for the second.

Going from `CNc1cc(Cl)nc(SC)n1` to `COc1nc(Nc2ccc(OC)c(Cl)c2)nc(OC)n1`, the “hERG current change (%, negative = inhibition) at 1uM” value falls from 14.9% to 12.5%.

Compared with `Cc1ccc(C)n1-c1ccc(C#N)cn1`, `Cc1cc([N+](=O)[O-])nn1CC(=O)NNC(=S)Nc1ccc([N+](=O)[O-])cc1` is higher in “hERG current change (%, negative = inhibition) at 1uM” value: -17.8% for the first, 11.8% for the second.

Compared with `COc1nc(OC)nc(N(C)CCO)n1`, `CCCC(=O)Nc1ccc(S(=O)(=O)Nc2cc(OC)nc(OC)n2)cc1` is lower in “hERG current change (%, negative = inhibition) at 1uM” value: 12.2% for the first, 7.96% for the second.

Going from `C=CCN=C(NC#N)SC` to `Oc1ccc(Cn2ccnc2)c2cccnc12`, the “hERG current change (%, negative = inhibition) at 1uM” value falls from 14.6% to 1.77%.

First: CC(=O)Nc1ccc(C(=O)Nc2ccc3c(c2)OCO3)cc1
Second: Cn1cccc1C(C(=O)NC1CCCCC1)N(C(=O)Cc1cccs1)c1ccc2c(c1)OCO2 (stereo not drawn)
The “hERG current change (%, negative = inhibition) at 1uM” value of the first is higher: 1.88% for the first, -2.56% for the second.

Compared with `Cc1ccc2nc(-c3ccc(NC(=S)NC(=O)C(C)C)cc3)sc2c1`, `COc1ccc(-c2nnc(NC(=O)CSc3ccc(C)cc3)s2)cc1OC` is higher in “hERG current change (%, negative = inhibition) at 1uM” value: -0.302% for the first, 6.59% for the second.

Compared with `CCNC(=O)CC1C(=O)N(c2ccccc2)C(=O)N1CCc1ccc(OC)c(OC)c1` (stereo not drawn), `CCN(CC)S(=O)(=O)c1ccc(N(C)CCc2ccc(OC)c(OC)c2)nc1` is lower in “hERG current change (%, negative = inhibition) at 1uM” value: 20.8% for the first, 7.66% for the second.

Going from `O=C(O)CCC(=O)c1ccc2c(c1)CCCC2` to `C[N+]1(CCOC(=O)C2(c3ccccc3)CCCC2)CCCCC1`, the “hERG current change (%, negative = inhibition) at 1uM” value falls from 11.6% to -3.42%.

Going from `Cc1nn(CCOc2ccccc2Cl)c(C)c1[N+](=O)[O-]` to `Cc1ccc(NC(=O)CCn2c(=S)oc3ccccc32)cc1`, the “hERG current change (%, negative = inhibition) at 1uM” value falls from 11.5% to 11%.

First: CCCOc1ccc(NC(=O)CC2C(=O)N(c3ccc(OCC)cc3)C(=S)N2C2CC2)cc1 (stereo not drawn)
Second: CCOc1ccc(C2C(C(=O)O)c3ccccc3C(=O)N2CCN2CCOCC2)cc1 (stereo not drawn)
The “hERG current change (%, negative = inhibition) at 1uM” value of the first is lower: -3.7% for the first, 20.1% for the second.

Going from `O=C1C=C(NCCN2CCOCC2)C(=O)c2cnccc21` to `O=C1C=C(c2ccc3c(c2)OCCO3)C[C@@H](c2ccc(F)cc2)C1`, the “hERG current change (%, negative = inhibition) at 1uM” value rises from 6.07% to 10.9%.

Compared with `Oc1cccc(/C=N/n2c(C3CCCCC3)n[nH]c2=S)c1`, `Cc1ccc(-c2c[n+](Cc3cccc(Cl)c3)c3n2CCC3)cc1.[Br-]` is lower in “hERG current change (%, negative = inhibition) at 1uM” value: 13.2% for the first, -0.905% for the second.

First: COC(=O)c1cc2c(ccn2-c2ccc(F)cc2)n1C(C)C
Second: CC(C)(C)NC(=O)C(c1c[nH]c2ccccc12)N(C(=O)Cn1nnc(-c2ccc(F)cc2)n1)c1cccc(O)c1 (stereo not drawn)
The “hERG current change (%, negative = inhibition) at 1uM” value of the first is lower: -0.311% for the first, 6.78% for the second.

Going from `C#CC(C)(CC)NC(=O)c1cc2nc(C3CC3)cc(C(F)(F)F)n2n1` (stereo not drawn) to `CC(C)(C)NC(=O)NC(=O)CSc1nnc(-c2ccccc2F)n1N`, the “hERG current change (%, negative = inhibition) at 1uM” value rises from -0.157% to 11.7%.

Compared with `NNC(=O)CCCCCCCCCCOCCCCO`, `CCCOC(=O)c1c(-c2ccc(OC)cc2)oc2ccc(-c3ccc(OC)nc3)cc12` is higher in “hERG current change (%, negative = inhibition) at 1uM” value: 9.18% for the first, 14% for the second.

Going from `Cc1cc(C(=O)Nc2nncs2)oc1C` to `CC1(C)N=C(SCC(=O)Nc2ccc(Cl)cc2)C(c2ccc(Cl)cc2)=N1`, the “hERG current change (%, negative = inhibition) at 1uM” value falls from 17% to -4.94%.

Going from `Brc1ccc(-c2ncc(-c3ccccc3)cn2)cc1` to `O=C(CC1(O)C(=O)N(Cc2ccccc2)c2ccccc21)c1ccncc1` (stereo not drawn), the “hERG current change (%, negative = inhibition) at 1uM” value falls from 14.8% to 3.35%.

Going from `O=C(c1ccccc1)c1c[nH]c2cc3c(cc2c1=O)OCCO3` to `CC(NC(=O)C12CC3CC(CC(O)(C3)C1)C2)c1ccccc1` (stereo not drawn), the “hERG current change (%, negative = inhibition) at 1uM” value rises from 2.37% to 9.23%.
